Reference: the antibiotic and cytotoxicity screens of Wong et al. (2023)
Some of the results follow.

Legend:
HSkMC = human skeletal muscle cells; test: cytotoxicity call (relative viability < 0.9); conditions: 10 µM
HepG2 = test: cytotoxicity call (relative viability < 0.9); conditions: 10 µM
S. aureus RN4220 = test: growth inhibition call (relative growth <= 0.2); conditions: 50 µM

Row | Compound | cytotoxicity call (HSkMC) | cytotoxicity call (HepG2) | growth inhibition call (S. aureus RN4220)
1 | COc1ccc(NC(=O)[C@H]2[C@@H](c3ccc(C)cc3)CC(=O)N2C(=O)OCc2ccccc2)c2ncccc12 | inactive | active | inactive
2 | C[C@@H]1CN([C@H](C)CO)C(=O)c2cc(NC(=O)Nc3ccc(F)cc3)ccc2O[C@@H](C)CCCCO[C@@H]1CN(C)C(=O)NC1CCCCC1 | inactive | inactive | inactive
3 | C[C@@H]1CN([C@@H](C)CO)S(=O)(=O)c2ccc(-c3ccc(C#N)cc3)cc2O[C@@H]1CN(C)C(=O)CN(C)C | inactive | inactive | inactive
4 | C[C@@H]1CCCCO[C@H](CN(C)C(=O)C2CCCCC2)[C@@H](C)CN([C@H](C)CO)C(=O)c2cc(NC(=O)Nc3cccc4ccccc34)ccc2O1 | inactive | inactive | inactive
5 | CCCCCOc1ccc([C@H]2C(C(=O)c3ccc4c(c3)OCCO4)=C(O)C(=O)N2Cc2ccco2)cc1 | inactive | inactive | inactive
6 | C[C@@H]1CN([C@@H](C)CO)C(=O)c2cccc(NC(=O)C3CC3)c2O[C@@H]1CN(C)S(=O)(=O)c1cn(C)cn1 | inactive | inactive | inactive
7 | COc1ccc(NC(=O)Nc2cccc3c2O[C@H](CN(C)S(=O)(=O)c2c(C)noc2C)[C@@H](C)CN([C@H](C)CO)C3=O)cc1 | inactive | inactive | inactive
8 | C[C@H]1CN([C@@H](C)CO)C(=O)c2cc(NS(=O)(=O)c3cn(C)cn3)ccc2O[C@H]1CN(C)C(=O)Nc1ccccc1 | inactive | inactive | inactive
9 | COc1ccc(-c2cnc3c(c2)C(=O)N([C@H](C)CO)C[C@H](C)[C@@H](CN(C)C(=O)Cc2ccccn2)O3)cc1 | inactive | inactive | inactive
10 | C[C@@H]1CN([C@@H](C)CO)C(=O)c2cc(NC(=O)Nc3ccc4c(c3)OCO4)ccc2O[C@@H]1CN(C)C(=O)Nc1cccc2ccccc12 | active | inactive | inactive
11 | C[C@@H]1CCCCO[C@H](CN(C)S(=O)(=O)c2cn(C)cn2)[C@H](C)CN([C@H](C)CO)C(=O)c2cc(N(C)C)ccc2O1 | inactive | inactive | inactive
12 | C[C@H]1CC=CC[C@@H](c2ccc3c(c2)OCO3)NC(=O)[C@H](Cc2ccccc2)N(C)C(=O)c2ccccc2O1 | inactive | inactive | inactive
13 | CCn1c(=S)[nH]c2ccccc21 | inactive | inactive | inactive
14 | COc1ccc(CN(C)C[C@H]2OCCCC[C@@H](C)Oc3ccc(NC(=O)c4ccncc4)cc3C(=O)N([C@@H](C)CO)C[C@H]2C)cc1 | inactive | inactive | inactive
15 | C[C@H](CO)N1C[C@H](C)[C@H](CN(C)C(=O)c2ccncc2)Oc2ncc(-c3ccc(C(=O)N(C)C)cc3)cc2C1=O | inactive | inactive | inactive
16 | COCC(=O)N1[C@H](C(=O)N2CCN(C)CC2)[C@@H](CO)[C@@H]2Cn3c(ccc(C4=CCCC4)c3=O)[C@@H]21 | inactive | inactive | inactive
17 | CC(C)NC(=O)N(C)C[C@@H]1Oc2ccc(NC(=O)Cc3ccccc3)cc2CC(=O)N([C@H](C)CO)C[C@H]1C | inactive | inactive | inactive
18 | C[C@H](CO)N1C[C@H](C)[C@@H](CN(C)S(C)(=O)=O)Oc2ccc(NC(=O)Nc3ccccc3)cc2CC1=O | inactive | inactive | inactive
19 | CCS(=O)(=O)N1C[C@]2(CN(Cc3cc(ccc3F)F)C2)c2c(n(c3cc(ccc23)OC)C)[C@@H]1CO | inactive | inactive | inactive
20 | CN1CCN(C(=O)C[C@@H]2CC[C@@H]3[C@H](COC[C@@H](O)CN3S(=O)(=O)c3cccc(Cl)c3)O2)CC1 | inactive | inactive | inactive
21 | COCC(=O)Nc1ccc2c(c1)C(=O)N(C)[C@@H]1CC[C@H](CC(=O)NCc3ccccc3Cl)O[C@H]1CO2 | inactive | inactive | inactive
22 | COc1ccc2c3c([nH]c2c1)[C@@H](CO)N(Cc1ccccc1)C[C@]13CCN(CC1)C(=O)Nc1cccc(c1)F | inactive | inactive | inactive
23 | Cc1noc(C)c1NC(=O)N(C)C[C@H]1OCCCC[C@H](C)Oc2ccc(NS(=O)(=O)c3ccc(Cl)cc3)cc2C(=O)N([C@@H](C)CO)C[C@@H]1C | inactive | inactive | inactive
24 | C[C@@H]1CCCCO[C@H](CN(C)C(=O)NC2CCCCC2)[C@H](C)CN([C@H](C)CO)C(=O)c2cc(NC(=O)Nc3ccc(C(F)(F)F)cc3)ccc2O1 | active | inactive | inactive
25 | C[C@@H](O)CN1CCN(S(=O)(=O)C2CC2)CC1 | inactive | inactive | inactive
26 | Cc1ccc(S(=O)(=O)Nc2ccc3c(c2)C(=O)N([C@H](C)CO)C[C@H](C)[C@H](CN(C)S(=O)(=O)c2ccc(F)cc2)OCCCC[C@@H](C)O3)cc1 | inactive | inactive | inactive
27 | COc1ccc(NC(=O)Nc2ccc3c(c2)CC(=O)N([C@@H](C)CO)C[C@@H](C)[C@@H](CN(C)S(=O)(=O)c2c(C)noc2C)O3)cc1 | inactive | inactive | inactive
28 | C[C@H](CO)N1C[C@H](C)[C@@H](CN(C)S(=O)(=O)c2ccccc2)Oc2cc(Br)ccc2S1(=O)=O | inactive | inactive | inactive
